# Laboratory results published in PubChem BioAssay AID2676 (National Center for Advancing Translational Sciences (NCATS), 2010).
# Among all 370,000 compounds or so, about 1,100 (0.3%) were called active. Inconclusive results, whose numbers are uncertain, are shown with a selection of clear calls. Calls follow the shape of the dose curve; as a rule, active = well fitted activation curve with a large enough effect; inconclusive = small, poorly fitted or top-dose-only effect; inactive = flat fitted curve, though single readings scatter. Potencies of inconclusive entries are doubtful fits and often do not repeat.
# Target: Relaxin receptor 1 (Homo sapiens) (UniProt Q9HBX9)
# Assay: qHTS Assay for Agonists of the Relaxin Receptor RXFP1; also: nearly all actives have a fitted effect of over 60% in size
# Settings: HEK293T-RXFP1 cAMP TR-FRET, 30 min; series mostly up to 57.5 µM
# Outline: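 cAMP rise read by TR-FRET after 30 min, 37C compound exposure (up to 58 uM) in RXFP1-transfected HEK293 cells with Ro 20174 present. EC50 from Hill-equation fits, with 29 nM porcine relaxin as 100% and buffer as basal.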
# Potency is read from the fitted curve at half-maximal effect; tags tell the direction and shape of the fitted curve.
# Sequence of UniProt Q9HBX9 (Q9HBX9 whole entry, looked up): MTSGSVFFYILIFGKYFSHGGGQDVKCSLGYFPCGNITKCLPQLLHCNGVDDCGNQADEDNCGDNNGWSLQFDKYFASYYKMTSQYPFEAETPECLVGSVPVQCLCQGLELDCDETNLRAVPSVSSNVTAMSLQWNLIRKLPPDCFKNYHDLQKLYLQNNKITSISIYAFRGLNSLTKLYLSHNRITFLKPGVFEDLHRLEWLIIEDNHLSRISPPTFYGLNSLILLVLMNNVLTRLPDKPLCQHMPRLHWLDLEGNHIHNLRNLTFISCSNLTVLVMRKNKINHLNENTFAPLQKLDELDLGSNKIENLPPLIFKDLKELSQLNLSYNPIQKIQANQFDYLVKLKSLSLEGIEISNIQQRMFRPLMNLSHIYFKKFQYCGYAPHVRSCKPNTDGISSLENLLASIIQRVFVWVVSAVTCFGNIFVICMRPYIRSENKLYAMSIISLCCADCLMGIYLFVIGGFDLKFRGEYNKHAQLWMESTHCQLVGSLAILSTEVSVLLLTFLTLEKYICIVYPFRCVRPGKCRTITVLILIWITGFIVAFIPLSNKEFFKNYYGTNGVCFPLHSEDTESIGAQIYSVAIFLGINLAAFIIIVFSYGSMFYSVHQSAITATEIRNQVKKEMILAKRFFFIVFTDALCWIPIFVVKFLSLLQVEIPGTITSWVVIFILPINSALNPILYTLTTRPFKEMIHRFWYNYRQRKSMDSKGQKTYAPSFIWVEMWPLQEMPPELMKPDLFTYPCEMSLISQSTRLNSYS
row,SMILES,Potency
1,Cc1cc(C)cc(NC(=O)Cn2cc(C(=O)c3ccccc3)c(=O)c3ccc(C)nc32)c1,"inconclusive: 31.6 µM [activator, single point]"
2,Cc1ccc(-n2c3nc(=O)[nH]c(=O)c-3cc3c(C)nn(-c4ccccc4)c32)c(C)c1,inactive
3,CC(C)c1nc(SCC(=O)NC2CCCCC2)c2ccccc2n1,"inconclusive: 20 µM [activator, partial curve]"
4,CC(C)Cn1c(=O)c2sccc2n2c(CCCC(=O)NC3CCCCC3)nnc12,"inconclusive: 35.5 µM [activator, single point]"
5,COc1ccccc1NC(=O)CSc1nc(N)c(C#N)cc1C#N,"inconclusive: 35.5 µM [activator, single point]"
6,Nc1nc(Nc2ccccc2)nc(N2CCOCC2)c1[N+](=O)[O-],inactive
7,Cc1nc(-c2ccc(S(=O)(=O)Nc3ccc(Br)cc3Cl)s2)cs1,"inconclusive: 10 µM [activator, partial curve]"
8,COc1cc(N(Cc2ccccc2)Cc2ccccc2)c2ncn(C(C)C)c2c1,inactive
9,Cc1ccc(C(=O)N2CCN3C(=O)c4ccccc4C23c2ccc(Cl)cc2)cc1 (stereo not given),inactive
10,O=S(=O)(c1ccc(Oc2ccc(Br)cc2)cc1)N1CCOCC1,inactive
11,CCCC(=O)Nc1nnc(SCc2cc(=O)n3cccc(C)c3n2)s1,"inconclusive: 39.8 µM [activator, single point]"
12,O=S(=O)(Nc1nc2ccccc2nc1Cl)c1ccc(Br)cc1,"inconclusive: 28.2 µM [activator, partial curve]"
13,CCOc1ccc(-n2nc3ccc(NC(=O)c4ccc(C)cc4C)cc3n2)cc1,"inconclusive: 3.98 µM [activator, single point]"
14,CC(C)c1nnc(NC(=O)CCC(=O)NCc2ccc(F)cc2)s1,"inconclusive: 3.55 µM [activator, single point]"
15,CC(=O)c1ccc(NC(=O)Cn2c(=O)oc3cc(S(=O)(=O)N4CCCCC4)ccc32)cc1,inactive
16,Cc1cc(OCC(=O)Nc2nc3c(s2)CCCC3)cc(C)c1Cl,inactive
17,CCc1ccc(N2CCN(CCNC(=O)Nc3ccc(OC)cc3)CC2)cc1,"inconclusive: 39.8 µM [activator, single point]"
18,Cc1nnc(SCC(=O)NC23CC4CC(CC(C4)C2)C3)n(N)c1=O,inactive
19,CCOC(=O)C1CCCN(Cc2cn3c(-c4ccc(Br)cc4)nnc3s2)C1 (stereo not given),"inconclusive: 35.5 µM [activator, single point]"
20,O=c1c2ccccc2cnn1Cc1n[nH]c(=S)n1-c1ccc(F)c(Cl)c1,active: 15.8 µM
